Data as given in paper PMC4381080.
Results are given in words; binding and its absence hold for the method and conditions named. Binding seen in cells or lysates may run through a third protein. Some binding calls cover weakened binding; strength is not graded here. For some of these results: Sequences can lack the tags named with a protein. Each block holds one molecule with its values, some of them ahead of it.

Sequences of proteins named here, by UniProt entry; tags and fusion partners are left off. Residues count along the entry.
UniProt O08984: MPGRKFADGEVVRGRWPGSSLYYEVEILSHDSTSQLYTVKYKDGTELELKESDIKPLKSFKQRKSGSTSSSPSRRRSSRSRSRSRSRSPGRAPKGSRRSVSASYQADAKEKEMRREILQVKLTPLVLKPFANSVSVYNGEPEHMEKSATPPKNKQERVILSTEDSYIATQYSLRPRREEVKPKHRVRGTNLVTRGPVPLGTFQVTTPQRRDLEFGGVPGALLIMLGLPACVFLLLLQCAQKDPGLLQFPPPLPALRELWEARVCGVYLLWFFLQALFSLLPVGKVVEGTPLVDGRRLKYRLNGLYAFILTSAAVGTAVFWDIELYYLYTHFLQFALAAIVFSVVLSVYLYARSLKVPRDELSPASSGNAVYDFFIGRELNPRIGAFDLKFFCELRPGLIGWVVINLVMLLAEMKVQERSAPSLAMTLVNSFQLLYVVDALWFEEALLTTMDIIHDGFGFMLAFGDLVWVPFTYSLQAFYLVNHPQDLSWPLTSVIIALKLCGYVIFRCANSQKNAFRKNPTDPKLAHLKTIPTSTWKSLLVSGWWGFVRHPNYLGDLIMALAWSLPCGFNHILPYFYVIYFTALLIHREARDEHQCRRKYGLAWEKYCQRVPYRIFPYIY
UniProt P02545, residues 1-646: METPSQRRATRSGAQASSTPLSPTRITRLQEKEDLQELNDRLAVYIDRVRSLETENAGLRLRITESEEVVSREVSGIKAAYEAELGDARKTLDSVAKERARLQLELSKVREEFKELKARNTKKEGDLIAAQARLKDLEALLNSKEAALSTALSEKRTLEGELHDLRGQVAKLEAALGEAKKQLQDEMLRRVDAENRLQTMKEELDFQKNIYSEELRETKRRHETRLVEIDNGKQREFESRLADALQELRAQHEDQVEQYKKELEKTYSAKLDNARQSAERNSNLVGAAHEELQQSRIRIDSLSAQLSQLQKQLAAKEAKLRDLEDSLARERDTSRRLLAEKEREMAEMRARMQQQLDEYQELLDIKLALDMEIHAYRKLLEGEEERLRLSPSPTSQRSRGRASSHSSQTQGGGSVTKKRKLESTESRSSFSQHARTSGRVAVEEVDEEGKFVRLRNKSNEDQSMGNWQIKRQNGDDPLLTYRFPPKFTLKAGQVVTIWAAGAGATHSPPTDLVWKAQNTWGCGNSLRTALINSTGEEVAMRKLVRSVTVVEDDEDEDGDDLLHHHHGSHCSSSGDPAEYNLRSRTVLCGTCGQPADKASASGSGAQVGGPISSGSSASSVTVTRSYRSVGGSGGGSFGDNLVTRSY
UniProt P20700: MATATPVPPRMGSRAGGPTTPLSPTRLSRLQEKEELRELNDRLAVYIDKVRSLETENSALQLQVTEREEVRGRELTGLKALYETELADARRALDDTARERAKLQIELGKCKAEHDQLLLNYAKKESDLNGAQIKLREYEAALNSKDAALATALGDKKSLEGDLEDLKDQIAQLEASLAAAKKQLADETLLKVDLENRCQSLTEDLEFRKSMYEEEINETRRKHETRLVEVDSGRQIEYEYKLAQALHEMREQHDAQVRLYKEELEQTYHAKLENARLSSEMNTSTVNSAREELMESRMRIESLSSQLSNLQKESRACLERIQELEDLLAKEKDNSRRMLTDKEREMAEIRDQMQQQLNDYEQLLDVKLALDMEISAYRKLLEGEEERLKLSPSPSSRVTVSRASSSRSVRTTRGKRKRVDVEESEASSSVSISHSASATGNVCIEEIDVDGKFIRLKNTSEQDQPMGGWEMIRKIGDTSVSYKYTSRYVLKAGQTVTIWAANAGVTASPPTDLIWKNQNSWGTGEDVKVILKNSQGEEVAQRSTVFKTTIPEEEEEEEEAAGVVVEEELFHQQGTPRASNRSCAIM
UniProt P48679, residues 1-647: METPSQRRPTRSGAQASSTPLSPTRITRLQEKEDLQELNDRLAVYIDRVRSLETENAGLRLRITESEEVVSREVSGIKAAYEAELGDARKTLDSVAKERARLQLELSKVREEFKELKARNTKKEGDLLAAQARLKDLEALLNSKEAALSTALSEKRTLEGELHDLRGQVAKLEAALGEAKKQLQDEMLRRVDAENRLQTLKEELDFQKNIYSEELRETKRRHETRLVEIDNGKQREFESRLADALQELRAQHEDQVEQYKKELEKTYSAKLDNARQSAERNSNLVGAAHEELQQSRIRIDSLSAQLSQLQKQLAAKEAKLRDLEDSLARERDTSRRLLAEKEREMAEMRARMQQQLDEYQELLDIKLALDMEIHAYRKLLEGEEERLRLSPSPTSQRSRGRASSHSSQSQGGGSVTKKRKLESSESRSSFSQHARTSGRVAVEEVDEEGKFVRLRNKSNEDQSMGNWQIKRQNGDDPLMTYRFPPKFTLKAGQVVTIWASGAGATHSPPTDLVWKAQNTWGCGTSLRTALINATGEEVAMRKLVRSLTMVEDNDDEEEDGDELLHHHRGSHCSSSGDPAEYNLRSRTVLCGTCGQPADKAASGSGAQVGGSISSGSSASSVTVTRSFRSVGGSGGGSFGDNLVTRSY

How the values were obtained:
[1] = target: T1, MBP-Cav-2 (wild type, residues 1–162) (UniProt Q2IBC5); assay: pull-down; in vitro binding assay: purified MBP fusions (100 μg) prebound to amylose resin, incubated with HEK293T nuclear lysates (1 mg protein, lysis buffer A with 8M urea) at 4°C for 4 h; four washes; immunoblotting; only the target purified
T1 sequence: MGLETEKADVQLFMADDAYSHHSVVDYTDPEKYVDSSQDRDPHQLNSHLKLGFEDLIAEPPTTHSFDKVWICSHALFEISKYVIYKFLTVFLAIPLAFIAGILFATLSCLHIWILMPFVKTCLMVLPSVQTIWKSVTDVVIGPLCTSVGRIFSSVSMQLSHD

MBP-Δ120–162-Cav-2 = target: T2, MBP-Δ120–162-Cav-2 (UniProt Q2IBC5); assay: as above
T2 sequence: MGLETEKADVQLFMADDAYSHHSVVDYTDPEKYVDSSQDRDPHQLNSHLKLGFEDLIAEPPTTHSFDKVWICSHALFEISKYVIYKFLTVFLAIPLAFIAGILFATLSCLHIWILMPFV

MBP-Δ1–13-Cav-2 = target: T3, MBP-Δ1–13-Cav-2 (UniProt Q2IBC5); assay: as above
T3 sequence: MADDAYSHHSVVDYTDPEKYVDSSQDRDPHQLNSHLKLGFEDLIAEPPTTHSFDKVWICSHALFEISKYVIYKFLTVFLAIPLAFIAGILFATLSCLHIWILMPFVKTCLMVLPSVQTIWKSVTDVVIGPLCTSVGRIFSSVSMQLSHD

MBP-Δ1–70-Cav-2 = target: T4, MBP-Δ1–70-Cav-2 (UniProt Q2IBC5); assay: as above
T4 sequence: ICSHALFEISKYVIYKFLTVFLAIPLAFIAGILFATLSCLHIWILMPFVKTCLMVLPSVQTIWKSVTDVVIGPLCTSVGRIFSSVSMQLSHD

MBP-Δ1–46-Cav-2 = target: T5, MBP-Δ1–46-Cav-2 (UniProt Q2IBC5); assay: as above
T5 sequence: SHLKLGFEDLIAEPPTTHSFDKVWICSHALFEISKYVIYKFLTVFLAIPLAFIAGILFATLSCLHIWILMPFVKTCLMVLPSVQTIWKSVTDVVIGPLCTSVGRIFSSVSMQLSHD

MBP-Δ47–86-Cav-2 = target: T6, MBP-Δ47–86-Cav-2 (UniProt Q2IBC5); assay: as above
T6 sequence: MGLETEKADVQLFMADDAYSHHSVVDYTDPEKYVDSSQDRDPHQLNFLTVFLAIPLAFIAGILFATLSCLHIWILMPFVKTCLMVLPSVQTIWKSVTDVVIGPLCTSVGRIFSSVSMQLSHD

[2] = target: T7, emerin, endogenous in Hirc-B cells (rat (endogenous in Hirc-B)) (UniProt Q63190); assay: proximity ligation; Duolink in situ PLA on fixed, permeabilized Hirc-B cells treated with or without 100 nM insulin for 30 min; pairs of primary antibodies at 4°C overnight; confocal microscopy
T7 sequence: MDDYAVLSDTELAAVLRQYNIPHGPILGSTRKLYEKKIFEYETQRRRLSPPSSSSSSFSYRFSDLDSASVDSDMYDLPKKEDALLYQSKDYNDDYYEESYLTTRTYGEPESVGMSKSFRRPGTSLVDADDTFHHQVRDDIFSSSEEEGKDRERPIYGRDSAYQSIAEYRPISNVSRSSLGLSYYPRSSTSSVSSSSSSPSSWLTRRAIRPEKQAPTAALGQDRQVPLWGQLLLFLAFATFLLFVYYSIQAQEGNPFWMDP

[3] = target: T8, pY19-Cav-2 (Tyr-19-phosphorylated caveolin-2), endogenous in Hirc-B cells (rat (endogenous in Hirc-B)) (UniProt Q2IBC5); assay: as above
T8 sequence (chain, phosphotyrosine at 19): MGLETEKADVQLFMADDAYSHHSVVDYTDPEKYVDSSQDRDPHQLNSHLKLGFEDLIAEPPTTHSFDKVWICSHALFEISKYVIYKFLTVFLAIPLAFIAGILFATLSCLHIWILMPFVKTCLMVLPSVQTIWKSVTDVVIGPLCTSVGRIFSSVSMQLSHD

[4] = target: T9, caveolin-2 (Cav-2), endogenous in Hirc-B cells (rat (endogenous in Hirc-B)) (UniProt Q2IBC5); assay: as above
T9 sequence: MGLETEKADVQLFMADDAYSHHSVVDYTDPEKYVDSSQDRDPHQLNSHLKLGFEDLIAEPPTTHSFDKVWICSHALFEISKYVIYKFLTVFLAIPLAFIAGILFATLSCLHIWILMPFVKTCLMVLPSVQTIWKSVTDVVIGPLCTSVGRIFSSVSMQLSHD

[5] = target: lamin B-receptor (LBR), endogenous in Hirc-B cells (rat (endogenous in Hirc-B)) (UniProt O08984); assay: as above
[6] = target: T10, Δ47–86-Cav-2-GFP, expressed in HEK293T cells (UniProt Q2IBC5); assay: co-IP; nuclear lysates (lysis buffer A with 8M urea) of Cav-2-GFP- or Δ47–86-Cav-2-GFP-expressed HEK293T cells treated with or without 100 nM insulin for 30 min; immunoprecipitated with anti-GFP antibody; immunoblotting
T10 sequence: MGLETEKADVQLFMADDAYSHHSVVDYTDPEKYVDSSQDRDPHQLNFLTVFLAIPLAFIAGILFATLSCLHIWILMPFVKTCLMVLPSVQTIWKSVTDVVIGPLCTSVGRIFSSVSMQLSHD

[7] = target: T11, Cav-2-GFP (wild type), expressed in HEK293T cells (UniProt Q2IBC5); assay: as above
T11 sequence: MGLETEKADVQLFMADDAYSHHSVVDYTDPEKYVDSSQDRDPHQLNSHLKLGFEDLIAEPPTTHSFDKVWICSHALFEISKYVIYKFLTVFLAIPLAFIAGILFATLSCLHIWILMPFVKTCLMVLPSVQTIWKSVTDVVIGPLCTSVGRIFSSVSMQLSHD

[8] = target: T9, caveolin-2 (Cav-2), endogenous in Hirc-B cells (rat (endogenous in Hirc-B)); assay: co-IP; nuclear lysates (lysis buffer A with 8M urea) of siLamin A/C-transfected Hirc-B cells treated with or without 100 nM insulin for 30 min; immunoprecipitated with anti-Cav-2 antibody; immunoblotting
[9] = target: T9, caveolin-2 (Cav-2), endogenous in Hirc-B cells (rat (endogenous in Hirc-B)); assay: condition: only in scramble control cells (lamin A/C not depleted); co-IP; nuclear lysates (lysis buffer A with 8M urea) of scramble control-transfected Hirc-B cells treated with or without 100 nM insulin for 30 min; immunoprecipitated with anti-Cav-2 antibody; immunoblotting

binding [1]: binds | binding (MBP-Δ120–162-Cav-2): binds | binding (MBP-Δ1–13-Cav-2): binds | binding (MBP-Δ1–70-Cav-2): no binding | binding (MBP-Δ1–46-Cav-2): binds | binding (MBP-Δ47–86-Cav-2): no binding
Molecule: lamin A/C, endogenous in HEK293T cells (from UniProt P02545 1-646)

binding [1]: no binding
Molecule: lamin B1, endogenous in HEK293T cells (from UniProt P20700 1-586)

binding [2]: binds | binding [3]: binds | binding [4]: binds
Molecule: lamin A/C, endogenous in Hirc-B cells (from UniProt P48679 1-647)

binding [5]: binds | binding [4]: no binding
B1: lamin B1, endogenous in Hirc-B cells (protein, UniProt P70615 1-587)
chain: MATATPVQQRAGSRASAPATPFSPTRLSRLQEKEELRELNDRLAVYIDKVRSLETENSALQLQVTEREEVRGRELTGLKALYETELADARRALDDTARERAKLQIELGKFKAEHDQLLLNYAKKESDLSGAQIKLREYEAALNSKDAALATALGDKKSLEGDLEDLKDQIAQLEASLSAAKKQLADETLLKVDLENRCQSLTEDLEFRKNMYEEEINETRRKHETRLVEVDSGRQIEYEYKLAQALHEMREQHDAQVRLYKEELEQTYHAKLENARLSSEMNTSTVNSARGGMMESRMRIESLSSQLSNLQKDSRACLERIQELEDMLAKERDNSRRMLSDKEREMAEIRDQMQQQLNDYEQLLDVKLALDMEISAYRKLLEGEEERLKLSPSPSSRVTVSRASSSRSVRTTRGKRKRVDVEESEASSSVSISHSASATGNVCIEEIDVDGKFIRLKNTSEQDQPMGGWEMIRKIGDTSVSYKYTSRYVLKAGQTVTVWAANAGVTASPPTDLIWKNQNSWGTGEDVKVVLKNSQGEEVAQRSTVFKTTIPEEEEEEEEEPIGVPLEEERFHQQGTPRASNKSCAIM

binding [6]: binds | binding [7]: no binding
B2: protein-tyrosine phosphatase 1B (PTP1B), endogenous in HEK293T cells (enzyme, UniProt P18031 1-435)
chain: MEMEKEFEQIDKSGSWAAIYQDIRHEASDFPCRVAKLPKNKNRNRYRDVSPFDHSRIKLHQEDNDYINASLIKMEEAQRSYILTQGPLPNTCGHFWEMVWEQKSRGVVMLNRVMEKGSLKCAQYWPQKEEKEMIFEDTNLKLTLISEDIKSYYTVRQLELENLTTQETREILHFHYTTWPDFGVPESPASFLNFLFKVRESGSLSPEHGPVVVHCSAGIGRSGTFCLADTCLLLMDKRKDPSSVDIKKVLLEMRKFRMGLIQTADQLRFSYLAVIEGAKFIMGDSSVQDQWKELSHEDLEPPPEHIPPPPRPPKRILEPHNGKCREFFPNHQWVKEETQEDKDCPIKEEKGSPLNAAPYGIESMSQDTEVRSRVVGGSLRGAQAASPAKGEPSLPEKDEDHALSYWKPFLVNMCVATVLTAGAYLCYRFLFNSNT

binding [8]: binds | binding [9]: no binding
B3: protein-tyrosine phosphatase 1B (PTP1B), endogenous in Hirc-B cells (enzyme, UniProt P20417 1-432)
chain: MEMEKEFEQIDKAGNWAAIYQDIRHEASDFPCRIAKLPKNKNRNRYRDVSPFDHSRIKLHQEDNDYINASLIKMEEAQRSYILTQGPLPNTCGHFWEMVWEQKSRGVVMLNRIMEKGSLKCAQYWPQKEEKEMVFDDTNLKLTLISEDVKSYYTVRQLELENLATQEAREILHFHYTTWPDFGVPESPASFLNFLFKVRESGSLSPEHGPIVVHCSAGIGRSGTFCLADTCLLLMDKRKDPSSVDIKKVLLEMRRFRMGLIQTADQLRFSYLAVIEGAKFIMGDSSVQDQWKELSHEDLEPPPEHVPPPPRPPKRTLEPHNGKCKELFSNHQWVSEESCEDEDILAREESRAPSIAVHSMSSMSQDTEVRKRMVGGGLQSAQASVPTEEELSPTEEEQKAHRPVHWKPFLVNVCMATALATGAYLCYRVCFH
